# This is one part of the list.
# Assays:
# Assay in all cases: glycan array binding signal (z-score within array); higher = stronger binding
# Conditions in all cases: glycan notation: IUPAC condensed, linker removed
# [1] = target: Neu5Ac(a2-3)Gal(b1-4)GlcNAc(b1-6)GalNAc
# Outline: (§1)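 The binding signal is a Z-score computed within each array. Data were drawn from 3228 arrays in the Consortium for Functional Glycomics database, restricted to those with a known protein sequence. Scores were averaged over arrays of the same protein sequence at different concentrations or buffers, and over linkers, and negative values can be taken as non-binding.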
# [2] = target: Neu5Ac(a2-3)Gal(b1-4)GlcNAc(b1-6)[Gal(b1-3)]GalNAc
# Outline: as §1
# [3] = target: Neu5Ac(a2-3)Gal(b1-4)GlcNAc(b1-6)[Neu5Ac(a2-3)Gal(b1-3)]GalNAc
# Outline: as §1
# [4] = target: Neu5Ac(a2-3)Gal(b1-4)GlcNAc6S
# Outline: as §1
# [5] = target: Neu5Ac(a2-3)Gal(b1-4)[Fuc(a1-3)]GlcNAc
# Outline: as §1
# [6] = target: Neu5Ac(a2-3)Gal(b1-4)[Fuc(a1-3)]GlcNAc(b1-2)Man
# Outline: as §1
# [7] = target: Neu5Ac(a2-3)Gal(b1-4)[Fuc(a1-3)]GlcNAc(b1-3)Gal
# Outline: as §1
# [8] = target: Neu5Ac(a2-3)Gal(b1-4)[Fuc(a1-3)]GlcNAc(b1-3)Gal(b1-4)GlcNAc
# Outline: as §1
# [9] = target: Neu5Ac(a2-3)Gal(b1-4)[Fuc(a1-3)]GlcNAc(b1-3)Gal(b1-4)[Fuc(a1-3)]GlcNAc(b1-3)Gal(b1-4)[Fuc(a1-3)]GlcNAc
# Outline: as §1
# [10] = target: Neu5Ac(a2-3)Gal(b1-4)[Fuc(a1-3)]GlcNAc(b1-3)GalNAc
# Outline: as §1
# [11] = target: Neu5Ac(a2-3)Gal(b1-4)[Fuc(a1-3)]GlcNAc(b1-6)[Gal(b1-3)]GalNAc
# Outline: as §1
# [12] = target: Neu5Ac(a2-3)Gal(b1-4)[Fuc(a1-3)]GlcNAc(b1-6)[Neu5Ac(a2-3)Gal(b1-3)]GalNAc
# Outline: as §1
# [13] = target: Neu5Ac(a2-3)Gal(b1-4)[Fuc(a1-3)]GlcNAc6S
# Outline: as §1
# [14] = target: Neu5Ac(a2-3)Gal6S(b1-4)GlcNAc
# Outline: as §1
# [15] = target: Neu5Ac(a2-3)Gal6S(b1-4)[Fuc(a1-3)]GlcNAc
# Outline: as §1
# Neu5Ac(a2-3)GalNAc = target: Neu5Ac(a2-3)GalNAc
# Outline: as §1
# [16] = target: Neu5Ac(a2-3)GalNAc(b1-4)GlcNAc
# Outline: as §1
# [17] = target: Neu5Ac(a2-3)[GalNAc(b1-4)]Gal(b1-4)Glc
# Outline: as §1
# [18] = target: Neu5Ac(a2-3)[GalNAc(b1-4)]Gal(b1-4)GlcNAc
# Outline: as §1
# [19] = target: Neu5Ac(a2-3)[GalNAc(b1-4)]Gal(b1-4)GlcNAc(b1-3)GalNAc
# Outline: as §1
# [20] = target: Neu5Ac(a2-3)[Neu5Ac(a2-6)]GalNAc
# Outline: as §1
# Neu5Ac(a2-6)Gal = target: Neu5Ac(a2-6)Gal
# Outline: as §1
# [21] = target: Neu5Ac(a2-6)Gal(b1-3)GlcNAc(b1-3)[Gal(b1-4)GlcNAc(b1-6)]Gal(b1-4)Glc
# Outline: as §1
# Neu5Ac(a2-6)Gal(b1-4)Glc = target: Neu5Ac(a2-6)Gal(b1-4)Glc
# Outline: as §1
# [22] = target: Neu5Ac(a2-6)Gal(b1-4)GlcNAc
# Outline: as §1
# [23] = target: Neu5Ac(a2-6)Gal(b1-4)GlcNAc(b1-2)Man
# Outline: as §1
# [24] = target: Neu5Ac(a2-6)Gal(b1-4)GlcNAc(b1-2)Man(a1-3)Man(b1-4)GlcNAc(b1-4)GlcNAc
# Outline: as §1
# [25] = target: Neu5Ac(a2-6)Gal(b1-4)GlcNAc(b1-2)Man(a1-3)[Gal(b1-4)GlcNAc(b1-2)Man(a1-6)]Man(b1-4)GlcNAc(b1-4)GlcNAc
# Outline: as §1
# [26] = target: Neu5Ac(a2-6)Gal(b1-4)GlcNAc(b1-2)Man(a1-3)[GlcNAc(b1-2)Man(a1-6)]Man(b1-4)GlcNAc(b1-4)GlcNAc
# Outline: as §1
# [27] = target: Neu5Ac(a2-6)Gal(b1-4)GlcNAc(b1-2)Man(a1-3)[GlcNAc(b1-4)][Neu5Ac(a2-6)Gal(b1-4)GlcNAc(b1-2)Man(a1-6)]Man(b1-4)GlcNAc(b1-4)GlcNAc
# Outline: as §1
# [28] = target: Neu5Ac(a2-6)Gal(b1-4)GlcNAc(b1-2)Man(a1-3)[Man(a1-6)]Man(b1-4)GlcNAc(b1-4)GlcNAc
# Outline: as §1
binder,measurement,setting,value
GS13686A-pdi-553-26-553 (Parabacteroides distasonis) (protein) NENPDKPTDDVNYNMNEPRLASTLRGGLIIEGNVEQRLKPLQIDFYSQMTVDGGGWGTKNYIQDDEWNNLVWEEYLKQIASINIVIRSLTEKDKDAYANTIAFARIWRVYVHTLAADKFGPMPFPAYEIVEANPPYKSLKDIYDEYFRELDAAINGFNDSAQPIFSDAGIDLIYKNDVSKWKRFANSLRLRLAVRLTEVDQEKCIAEANAAISSPAGLISDKADNAYMPPKADGSWGQDYNYTMFQITWSGPICMSKSVEKLVTNIGGVAWPQGVVNQTSGVAVSSVHPEKVDPRAPKIFQPGIENGDWKGLVYGPKAEEANTGIYQSKQCAELGFIIKDGYPYKSRPYDLFLSEEVHFLKAELYARGFIAGDAKSEYEAGVRASFATWGVTSEVDDYLTSTEKNEAGTSARYDDQQGAGNTALEKIITQKYIAGIPDLAQEGWNDKRRLNLPRLDVAVYRDQAVYNNNDKDILKSANFIKRMRYPTKESLINATEYEKGKSMLGGKGDIVSTPLWWDKNSNYCTSSK,glycan array binding signal (z-score),[1],-0.377
same,glycan array binding signal (z-score),[2],0.313
same,glycan array binding signal (z-score),[3],-0.289
same,glycan array binding signal (z-score),[4],-0.029
same,glycan array binding signal (z-score),[5],-0.031
same,glycan array binding signal (z-score),[6],-0.407
same,glycan array binding signal (z-score),[7],-0.236
same,glycan array binding signal (z-score),[8],0.139
same,glycan array binding signal (z-score),[9],-0.233
same,glycan array binding signal (z-score),[10],0.207
same,glycan array binding signal (z-score),[11],0.77
same,glycan array binding signal (z-score),[12],0.21
same,glycan array binding signal (z-score),[13],-0.203
same,glycan array binding signal (z-score),[14],-0.294
same,glycan array binding signal (z-score),[15],-0.479
same,glycan array binding signal (z-score),Neu5Ac(a2-3)GalNAc,-0.339
same,glycan array binding signal (z-score),[16],0.15
same,glycan array binding signal (z-score),[17],0.734
same,glycan array binding signal (z-score),[18],-0.009
same,glycan array binding signal (z-score),[19],-0.439
same,glycan array binding signal (z-score),[20],-0.238
same,glycan array binding signal (z-score),Neu5Ac(a2-6)Gal,-0.025
same,glycan array binding signal (z-score),[21],2
same,glycan array binding signal (z-score),Neu5Ac(a2-6)Gal(b1-4)Glc,-0.183
same,glycan array binding signal (z-score),[22],-0.186
same,glycan array binding signal (z-score),[23],-0.316
same,glycan array binding signal (z-score),[24],0.502
same,glycan array binding signal (z-score),[25],0.682
same,glycan array binding signal (z-score),[26],-0.222
same,glycan array binding signal (z-score),[27],-0.1
same,glycan array binding signal (z-score),[28],0.341

# From the supplement of paper PMC8728848
